Data published in PMC4336329 (PLoS ONE, 2015).
Among all 310,000 compounds or so, about 2,200 (0.71%) showed an effect of 50% or more. The effect is printed as a negative number. The list shows a part of the results.

Target: human ether-à-go-go-related gene (hERG) potassium channel (human, UniProt Q12809)
Assay: primary screen, population patch clamp on CHO cells stably expressing hERG

Chain of human ether-à-go-go-related gene (hERG) potassium channel (Q12809 whole entry, looked up): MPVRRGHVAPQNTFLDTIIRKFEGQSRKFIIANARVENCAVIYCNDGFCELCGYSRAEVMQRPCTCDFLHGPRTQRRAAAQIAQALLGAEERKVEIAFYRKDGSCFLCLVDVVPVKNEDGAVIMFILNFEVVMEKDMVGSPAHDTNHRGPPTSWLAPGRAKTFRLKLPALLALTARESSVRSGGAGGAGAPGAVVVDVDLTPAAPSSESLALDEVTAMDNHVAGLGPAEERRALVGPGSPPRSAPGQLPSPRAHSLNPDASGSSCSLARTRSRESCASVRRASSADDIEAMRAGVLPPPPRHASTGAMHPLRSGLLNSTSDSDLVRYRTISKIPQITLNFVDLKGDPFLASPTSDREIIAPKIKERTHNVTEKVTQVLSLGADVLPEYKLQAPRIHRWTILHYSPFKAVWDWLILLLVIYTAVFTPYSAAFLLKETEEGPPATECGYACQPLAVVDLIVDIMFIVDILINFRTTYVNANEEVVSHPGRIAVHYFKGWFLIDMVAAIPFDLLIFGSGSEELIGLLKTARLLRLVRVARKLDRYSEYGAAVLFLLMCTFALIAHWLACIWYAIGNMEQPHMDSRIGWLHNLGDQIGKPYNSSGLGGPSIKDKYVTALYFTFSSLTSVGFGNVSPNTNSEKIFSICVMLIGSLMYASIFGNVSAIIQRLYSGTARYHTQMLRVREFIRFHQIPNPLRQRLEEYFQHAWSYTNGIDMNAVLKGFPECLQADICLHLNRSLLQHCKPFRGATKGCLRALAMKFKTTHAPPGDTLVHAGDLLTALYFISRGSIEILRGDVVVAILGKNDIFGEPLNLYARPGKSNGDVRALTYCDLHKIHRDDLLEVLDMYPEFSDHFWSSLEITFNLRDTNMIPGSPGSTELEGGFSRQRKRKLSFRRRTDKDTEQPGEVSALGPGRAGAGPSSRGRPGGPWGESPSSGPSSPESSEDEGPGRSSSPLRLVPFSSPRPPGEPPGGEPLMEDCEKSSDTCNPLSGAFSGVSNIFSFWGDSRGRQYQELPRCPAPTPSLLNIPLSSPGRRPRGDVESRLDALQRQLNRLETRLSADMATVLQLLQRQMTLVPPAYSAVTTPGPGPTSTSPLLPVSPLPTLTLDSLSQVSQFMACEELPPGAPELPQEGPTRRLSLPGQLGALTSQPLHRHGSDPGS

| SMILES | hERG current change (%, negative = inhibition) at 1uM [%] |
| --- | --- |
| CN(C)c1ccc(C(CNS(=O)(=O)c2ccc([N+](=O)[O-])cc2)N2CCOCC2)cc1 (centres unmarked) | -2.98 |
| Cc1nn(Cc2c(Cl)cccc2Cl)c(Cl)c1C(=O)O | 11.1 |
| COc1ccc(S(=O)(=O)NCCCN2CCCC2=O)c(OC)c1 | 8.09 |
| COC(=O)C1(c2ccccc2)NC(c2cccs2)C2C(=O)N(C)C(=O)C21 (centres unmarked) | -2.17 |
| O=C(Nc1ccc(S(=O)(=O)NC2=NCCCCC2)cc1)C1COc2ccccc2O1 (centres unmarked) | 15.5 |
| Cc1ccccc1Nc1ncnc2c1cnn2C | 8.93 |
| O=C(N/N=C/c1cccnc1)c1ccc(CN2c3cccc4cccc(c34)S2(=O)=O)cc1 | 13.6 |
| O=[N+]([O-])c1cc(/C=N/Nc2nc(N3CCOCC3)nc(N3CCOCC3)n2)ccc1Cl | 9.23 |
| Cc1ccc(NC(=O)CN(C)C(=O)COC(=O)CCS(=O)(=O)c2ccc(C)cc2)cc1 | 6.79 |
| COc1cccc(-c2ccc(NC(=O)C3CCCN(Cc4ccc(CO)o4)C3)cc2)c1 (centres unmarked) | 6.28 |
| Cc1cccc(CC(=O)NC2CCS(=O)(=O)C2)c1 (centres unmarked) | 0.686 |
| Cc1ccc(NS(=O)(=O)c2cc(-c3cc(C)no3)ccc2C(C)C)nc1 | 12.2 |
| O=C(Nc1ccc(S(=O)(=O)Nc2ncccn2)cc1)c1ccc(Br)s1 | 5.42 |
| COc1ccc(-c2cc(C(=O)Nc3cc(Br)ccc3O)no2)cc1 | 10.3 |
| CCN(CC)c1nc2n(c(=O)n1)CCN2CC | 6.01 |
| CCOC(=O)CCSc1nc(C(C)(C)C)cc(C(F)(F)F)c1C#N | 12 |
| CCOC(=O)CNC(=O)C1COc2ccccc2O1 (centres unmarked) | 10.4 |
| O=C(O)c1ccc(Cl)c(S(=O)(=O)Nc2ccc3[nH]c(=O)[nH]c3c2)c1 | 9.72 |
| CCOCCCn1c(=S)[nH]c2cc(C(=O)N3CCN(C4CCCCC4)CC3)ccc2c1=O | 10.4 |

| SMILES | hERG current change (%, negative = inhibition) at 1uM [%] |
| --- | --- |
| CCOC(=O)CSc1nc2cc(S(=O)(=O)Nc3ccccc3OC)ccc2o1 | -3.83 |
| COc1ccc(NC(=O)COC(=O)c2ccc(Br)o2)cc1OC | 16.6 |
| COCCn1c(NCc2ccccc2)nc2c1c(=O)[nH]c(=O)n2C | 9.98 |
| O=C(O)CC(SCc1ccc(C(=O)O)o1)C(=O)O (centres unmarked) | 11.8 |
| Cc1coc2c1c(C)cc1oc(=O)c(CC(=O)NCC(=O)NCC(=O)O)c(C)c12 | 10.4 |
| N#C/C(=C\c1ccc(Oc2ccc(C(F)(F)F)cc2[N+](=O)[O-])cc1)c1nc2ccccc2[nH]1 | 11 |
| COC(=O)c1ccc(NC(=O)c2nc(S(=O)(=O)Cc3cccc(C)c3)ncc2Cl)cc1 | 17.2 |
| CCC(C)NC(=O)c1ccc(COc2ccccc2Cl)cc1 (centres unmarked) | -7.71 |
| O=C(Cc1ccccc1)NCc1ccccn1 | 10.4 |
| COc1cccc(N2C(N)=NC(N)=NC2(C)C)c1.Cl | 12.7 |
| C/C(=N\NC(=O)c1ccncc1)c1cccs1 | 5.93 |
| CN(C)c1ccc(NC(=O)/C=C/c2ccccc2Cl)cc1 | 5.27 |
| N#Cc1ccc(Oc2ccc(C(F)(F)F)cc2NC(=O)c2ccc(F)cc2)cc1 | -27.4 |
| O=C(NCCC(=O)N1CCCCC1)c1ccccc1Cl | -22.9 |
| N#Cc1nnn2c1nc(N)c1c(F)cccc12 | 18.1 |
| CCOc1ccc(N(CC)C(=O)COc2cc(=O)n(C)c3ccccc23)cc1 | -6.46 |
| CCNC(=S)Nc1ccc2ncoc2c1 | 13.5 |
| CCN(CC)C(=O)C(=O)c1cn(CCOc2ccccc2)c2ccccc12 | 12.5 |
| O=C(N/N=C/c1cccn1-c1ccc([N+](=O)[O-])cc1)C(O)c1ccccc1 (centres unmarked) | -0.277 |

| SMILES | hERG current change (%, negative = inhibition) at 1uM [%] |
| --- | --- |
| COCCNC(=S)NNc1cccc(C(=O)O)c1 | 3.81 |
| COc1ccc(NC(=S)NCc2ccc(Cl)cc2)c(OC)c1 | 18 |
| CC1Cc2ccccc2N1C(=O)CO/N=C/c1ccccc1OC(F)F (centres unmarked) | 9.05 |
| CCCNc1nc(C)cc(-c2cc(C(=O)NCc3ccccc3)on2)n1 | 12 |
| CCCC(=O)Nc1ccc(N2CCN(CC)CC2)c(Cl)c1.Cl | -17.9 |
| Cc1cc(C)nc(SCc2cc(=O)c(OC(=O)c3ccc(S(=O)(=O)N4CCCC4)cc3)co2)n1 | -0.0435 |
| Cc1noc(C)c1C(=O)Nc1cccc2ncccc12 | 10.7 |
| Cc1cccc(C(O)(C(=O)NNc2ccc3ccccc3[nH+]2)c2cccc(C)c2)c1.[Cl-] | 13.3 |
| CC1=CC2=NC(=O)/C(=C\c3ccc(OC(=O)c4ccco4)cc3)C(=N)N2O1 | 6.29 |
| CCCOC(=O)CSc1nnc(-c2ccc(Cl)cc2Cl)o1 | 11.4 |
| C[C@@H](C(=O)Nc1ccc2ccccc2c1)[C@@H]1C[C@@]1(C)[C@@H](NC(=O)c1cnccn1)c1ccccc1 | 5.58 |
| COc1cccc(/C=C/C(=O)OCC(=O)Nc2ccccc2Sc2ccccc2)c1 | 11.8 |
| CCOC(=O)c1[nH]c2ccc(OC)cc2c1NC(=O)c1ccc(OC)c(OC)c1 | -1.13 |
| NC(=O)CNc1ncc(C(F)(F)F)cc1Cl | 19.6 |
| Cc1cccc(C)c1-n1c(SCC(=O)N2CC(=O)Nc3ccccc32)nc2ccccc2c1=O | 8.07 |
| Clc1ccccc1CSc1nnc(-c2ccncc2)o1 | 2.5 |
| S=C(Nc1ccc(Cl)cc1)N1CCOCC1 | 4.65 |
| CC1Nc2ncnc(N3CCc4ccccc4C3)c2N(Cc2ccc(Br)cc2)C1=O.O=C(O)C(F)(F)F (centres unmarked) | 13.8 |
